Laboratory results from PubChem BioAssay AID1508623 (National Center for Advancing Translational Sciences (NCATS), 2021).
The campaign covered roughly 48,000 compounds. About 450 (0.94%) were called active. Inconclusive results (about 19%) are left out. Calls follow the shape of the dose curve; as a rule, active = well fitted inhibition curve with a large enough effect; inconclusive = small, poorly fitted or top-dose-only effect; inactive = no such curve, though single readings can be large or run the other way. This is one part of the list.

Test: Primary qHTS for Identification of Small Molecule Inhibitors of Huntingtin Promoter Activity; also: nearly all actives have a fitted effect of over 50% in size
Details: HEK293 HTT promoter firefly luciferase reporter (activity 0% = vehicle and -100% = no light), 24 h; series mostly up to 57.5 µM; activity change, negative = inhibition: at the top concentration
Summary of the method: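 HEK293 cells carrying firefly luciferase reporters were seeded at 2,500 per well in Opti-MEM and cultured for 24 h. They were then treated with compounds at up to 57.5 uM final for 24 h at 37 degrees C before Dual-Glo luminescence readout.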

Activity change, negative = inhibition, inactive:
CCOC(=O)c1cc2c(=O)n3ccccc3nc2n(CCCOC)c1=NC(=O)C(C)Oc1ccccc1 (stereo unspecified) -16.4%
CN(C)S(=O)(=O)c1ccc(C(=O)N2CC(=O)Nc3ccc(Br)cc3C2c2ccc(F)cc2)cc1 (stereo unspecified) -3.57%
CC1CCN(C(=O)Cn2c(=O)oc3cc(S(=O)(=O)N4CCCCC4)ccc32)CC1 -17.1%
CCOc1cc(CNc2ccc(O)cc2)ccc1OCc1ccc(Cl)cc1 10.4%
CCOc1ccc(CC(=O)NCCc2sc3nc(-c4ccc(OC)cc4)nn3c2C)cc1 -8.46%
Cc1cccc(-n2c(=O)c3c4c(sc3n3cnnc23)CCCC4)c1 -2.13%
CCN1CCN(c2c(S(=O)(=O)c3ccc(C)c(C)c3)cnc3cc(OC)c(OC)cc23)CC1 -27%
Cc1cc(=O)n(Cc2cccc(Cl)c2)c2c1c(C)nn2-c1ccccc1 -13.3%
Cc1cc(C)cc(NC2=CC(c3cccc(F)c3)N(c3cc(C)cc(C)c3)C2=O)c1 (stereo unspecified) 12.7%
CCN(CC)C(=O)c1sc2c(c1C)c(=O)n(-c1ccccc1)c(=O)n2CC(=O)Nc1ccc(C)cc1C 0%
CCCCSc1ncnc2c1c(-c1ccccc1)cn2-c1cccc(F)c1 -13.9%
CCN(CC)S(=O)(=O)c1nnc(NC(=O)COc2ccc(Cl)cc2)s1 -17.5%
CCOC(=O)Cn1cnc2onc(-c3ccc(F)cc3)c2c1=O -20.5%
COc1ccc(C(CNC(=O)COc2ccc(Cl)c(C)c2)N2CCOCC2)cc1 (stereo unspecified) -7.72%
Cc1cc(C)cc(NS(=O)(=O)c2ccc3c(c2)NC(=O)C(C)S3)c1 (stereo unspecified) -26.2%
Cc1c(C(=O)NCc2ccccc2Br)oc2c1-c1[nH]ncc1CC2 23.8%
CCN1CCN(c2c(S(=O)(=O)c3ccc(OC)cc3)cnc3cc(OC)c(OC)cc23)CC1 -18.4%
CCc1ccc(S(=O)(=O)c2nnn3c2nc(NC2CCCCCC2)c2sccc23)cc1 -8.58%
CCOC(=O)C(CC)Sc1ccc2nnc(CCNS(=O)(=O)c3ccc(C)cc3)n2n1 (stereo unspecified) -5.54%
CCOCCCNC(=O)C1CCC(CNS(=O)(=O)c2ccc(NC(C)=O)cc2)CC1 (stereo unspecified) 1.79%
Cc1ccc(C)c(CN2C(=O)c3ccccc3S(=O)c3ccc(C(=O)NCc4ccccc4)cc32)c1 (stereo unspecified) -20.9%
COc1ccccc1Cc1nc2ccccc2[nH]c1=O 24.9%
CCn1cc(C(=O)N2CCN(c3cccc(Cl)c3)CC2)c(=O)c2cc(S(=O)(=O)N3CCCCC3)ccc21 -26.6% [at 11.5 µM]
COc1ccc(OC)c(NC(=O)N2CCN(S(=O)(=O)c3ccc4c(ccn4C)c3)CC2)c1 -23.5%
COc1ccc(C(CNC(=O)c2oc3ccc(C)cc3c2C)N2CCOCC2)cc1 (stereo unspecified) -5.19%
COc1cc(OC)cc(C(=O)Nc2ccc3nc(N4CCCCC4)cc(C)c3c2)c1 -28.5%
CC(C)Cn1c(=O)c2ccccc2n2c(CCC(=O)N3CCN(c4ccccc4F)CC3)nnc12 -1.78%
Cc1ccc2nc(-c3ccc(O)cc3)c(Nc3ccc4c(c3)OCCO4)n2c1 1.41%
CCCSCCCNC(=O)C1CCN(c2nn3cc(-c4ccc(F)cc4)nc3s2)CC1 -14.3%
CCC1CCCCN1CCCNC(=O)c1cc2c(Cl)nc3ccccc3c2s1 (stereo unspecified) -20%
Cc1ccc(C)n1-c1nnc(N2CCCC(C(=O)Nc3ccc(C(C)C)cc3)C2)s1 (stereo unspecified) 16.5%
COC(=O)c1ccccc1NC(=O)Cn1c(=O)n(Cc2ccc(C(=O)NCc3ccc4c(c3)OCO4)cc2)c(=O)c2ccccc21 -5.96%
CCOC(=O)c1c(C)oc2ncnc(Nc3ccc(OCC)cc3)c12 2.05%
COc1cccc(C(=O)c2sc3nc(-c4ccccc4)cc(C(F)(F)F)c3c2N)c1 -24.4%
O=C(CN1C(=O)CCc2cc(S(=O)(=O)N3CCOCC3)ccc21)NCc1ccc(F)cc1 -31.8%
Cc1ccc(CNC(=O)c2ccc3c(c2)nc(C)n3-c2cc(C)cc(C)c2)cc1 0.579%
O=C(COc1ccccc1F)Nc1ccc(-c2nc3ccccc3s2)cc1 27.7%
Cc1ccc(N(CC(=O)NCCc2ccccc2)S(=O)(=O)N(C)C)cc1 -1.76%
COc1cc(C)ccc1OCCSc1nc2ccc(NC(=O)c3ccc(F)cc3)cc2s1 -4.24%
CCCCOc1ccc(C(=O)Nc2ccc(-c3nc4ccccc4s3)cc2C)cc1 41.1%
Cn1ccc2cc(S(=O)(=O)N3CCC(C(=O)NCCc4ccccc4)CC3)ccc21 -11.8%
N#Cc1ccccc1NC(=O)Cn1cnc2onc(-c3cccc(F)c3)c2c1=O -1.01%
COc1ccc2oc(-c3ccc(C)c(NC(=O)c4cccnc4)c3)nc2c1 -7.75%
COc1cc(OC)c(NC(=O)CSc2nccn2C)cc1Cl -26.4%
CC1CCN(c2oc(-c3cccs3)nc2S(=O)(=O)c2ccc(Cl)cc2)CC1 -10.5% [at 11.5 µM]
Cc1ccc(CNC(=O)c2ccc(-n3c(C)cc4c3CCCC4)cc2)cc1 -3.74%
Cc1ccc(OCC(=O)Nc2ccc3nc(SCC(=O)N4CCCC4)sc3c2)cc1 18.6%
O=C(CSc1nc2cc(C(=O)NC3CCCC3)ccc2c(=O)n1CC1CCCO1)c1ccc(F)cc1 (stereo unspecified) -6.74%
Cc1ccc(C)c(S(=O)(=O)c2cn(Cc3ccccc3)c3cc(F)c(F)cc3c2=O)c1 -28.1%
CCOC(=O)c1c(SCC(=O)Nc2nc3ccc(C)cc3s2)nc(=O)[nH]c1C -2.14%
Cc1cc(C)c2sc(N(Cc3cccnc3)C(=O)CCS(=O)(=O)c3ccccc3)nc2c1 0.91%
Cc1cccc(CSc2cn(CC(=O)N3CCCCC3)c3ccccc23)c1 -7.2%
O=C(Cn1cc(SCc2cccc(F)c2)c2ccccc21)N1CCOCC1 22.8%
CN(C)C(=N)N=C(N)N
O=C(c1cc(-c2ccc(Br)cc2)n[nH]1)N1CCN(S(=O)(=O)c2ccc(Br)cc2)CC1 -21.5%
CCC(=O)N1N=C(c2ccc(OC)cc2)CC1c1cn(-c2ccccc2)nc1-c1cccs1 (stereo unspecified) -11.6%
O=C(Cn1ccn(-c2ccc(F)cc2)c(=O)c1=O)NCCc1ccccc1 -12.9%
CCOc1ccc(N(c2nc(-c3ccc(OC)c(OC)c3)no2)c2nc(-c3ccc(OC)c(OC)c3)no2)cc1 10.1%
COC(=O)CSc1nc2c(cnn2-c2ccc(F)cc2)c(=O)[nH]1 -18.5%
CCc1ccc(NC(=O)CC2C(=O)OCCN2CC)cc1 (stereo unspecified) -1.87%
Cc1oc(-c2cccc(Br)c2)nc1CN1CCC(C(=O)NCCc2ccc(Cl)cc2)CC1 5.98%
